# Among all 390,000 compounds or so, about 1,400 (0.36%) were called active. The inconclusive results got no clear call from the source; some entries with a clear call stand among them for comparison. The call rests on the fitted dose curve; in most records, active means well fitted inhibition curve with a large enough effect; inconclusive means small, poorly fitted or top-dose-only effect; inactive means no such curve, though single readings can be large or run the other way. Potencies of inconclusive entries are doubtful fits and often do not repeat.
# Target: Flap endonuclease 1 (Homo sapiens) (UniProt P39748)
# Chain of UniProt P39748 (P39748 whole entry, looked up): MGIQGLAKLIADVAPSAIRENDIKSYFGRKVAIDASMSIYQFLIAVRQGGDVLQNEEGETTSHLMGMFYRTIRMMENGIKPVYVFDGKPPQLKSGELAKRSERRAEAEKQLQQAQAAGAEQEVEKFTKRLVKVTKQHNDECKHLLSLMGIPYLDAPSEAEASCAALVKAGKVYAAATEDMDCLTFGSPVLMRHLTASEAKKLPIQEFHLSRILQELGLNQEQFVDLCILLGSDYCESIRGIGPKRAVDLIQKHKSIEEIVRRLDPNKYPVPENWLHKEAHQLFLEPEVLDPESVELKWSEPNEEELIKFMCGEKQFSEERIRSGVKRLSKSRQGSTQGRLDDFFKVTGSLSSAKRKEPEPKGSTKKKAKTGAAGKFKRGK
# Assay: qHTS Assay for the Inhibitors of Human Flap endonuclease 1 (FEN1). Further: nearly all actives have a fitted effect of over 65% in size.
# Conditions: Recombinant FEN1 flap cleavage, fluorescence, 15 min; series mostly up to 114 µM
# Summary of the method: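 Recombinant FEN1 (10 nM) was preincubated with pin-transferred compounds for 15 min at room temperature, then flap DNA substrate (50 nM final) was added. Plates were read at 0 and 15 min, and normalized concentration–response data were fitted to a four-parameter Hill equation.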
# Potency means the concentration at half of the fitted maximal effect; tags describe the fitted curve by direction and shape.
row,SMILES,Potency
1,Cc1nc(S/C(=C/c2ccc(OCc3ccc(C(=O)O)cc3)cc2)C(=O)O)n[nH]1,"inconclusive: 79.4 µM [inhibitor, partial curve, poor fit]"
2,Cc1cccc(OCC(=O)NC(Cc2ccccc2)C(=O)O)c1 (centres undefined),inactive
3,CN1CCN(c2oc(-c3ccco3)nc2S(=O)(=O)c2ccccc2)CC1,inactive
4,O=c1[nH]c(/C=C/c2ccc([N+](=O)[O-])cc2)c([N+](=O)[O-])c(=O)[nH]1,inactive
5,COC(=O)C1CCN(C2=C(NS(=O)(=O)c3ccc(Cl)cc3)C(=O)c3ccccc3C2=O)CC1,inactive
6,COc1ccc(-c2csc(N(CCCN3CCOCC3)C(=O)c3ccco3)n2)cc1,"inconclusive: 14.1 µM [inhibitor, partial curve, poor fit]"
7,O=c1c(Cl)c(N/N=C/c2ccc(Cl)cc2)cnn1-c1ccccc1,"inconclusive: 44.7 µM [inhibitor, partial curve]"
8,N#CC1=C(N)Oc2[nH]c(=S)[nH]c(=O)c2C12C(=O)Nc1ccccc12 (centres undefined),"inconclusive: 63.1 µM [inhibitor, partial curve, poor fit]"
9,Cc1cc(C)c(NC(=O)c2sc3nc(C)cc(C)c3c2N)c(C)c1,inactive
10,CNCCc1cnc(CCC(c2ccccc2)c2ccccc2)[nH]1,"inconclusive: 23.8 µM [inhibitor, single point]"
11,Nc1nn2c(-c3ccccc3)cc(=O)[nH]c2c1N=Nc1ccc(O)cc1,"inconclusive: 56.2 µM [inhibitor, partial curve, poor fit]"
12,COc1ccc(NC(=O)c2c(C)oc3ccc(O)c(CN4CCN(C)CC4)c23)cc1Cl,inactive
13,Cc1sc2ncnc(N3CCC(C(=O)Nc4ccc(F)cc4Cl)CC3)c2c1C,"inconclusive: 50.1 µM [inhibitor, partial curve]"
14,CCCc1nn2c(=O)cc(COC(=O)c3ccc(NC(=O)c4cccs4)cc3)nc2s1,inactive
15,COc1ccc(Nc2nc(N3CCCCC3)nc3ccccc23)c(OC)c1,"inconclusive: 79.4 µM [inhibitor, single point]"
16,CCOC(=O)c1sc(NC(=O)c2nc(SC)ncc2Cl)c(C(=O)OCC)c1C,inactive
17,CCc1ccc(-c2csc(NC(=O)C3CC(=O)N(c4ccc5c(c4)OCCO5)C3)n2)cc1 (centres undefined),"inconclusive: 89.1 µM [inhibitor, single point]"
18,N#Cc1ccsc1NC(=O)COC(=O)c1ccc(Br)o1,"inconclusive: 89.1 µM [inhibitor, partial curve, poor fit]"
19,COc1cccc(/C=C2/C(=O)NN(c3ccc(Br)cc3)C2=O)c1O,inactive
20,Cc1ccccc1N1C(=O)CC(Sc2nnc(-c3ccccc3)o2)C1=O (centres undefined),inactive
21,O=C(Nc1ccc(Cl)cc1Cl)c1cccc(N2C(=O)C=CC2=O)c1,inactive
22,Cc1ccnc(NC(=O)Nc2ccc(Br)cc2Cl)c1,"inconclusive: 100 µM [inhibitor, single point]"

row,SMILES,Potency
1,COc1ccc(OC)c(N=c2ssnc2Cl)c1,inactive
2,COc1cc2c(cc1OC)C(C)N(C(=O)/C=C/c1cc(OC)c(OC)c(OC)c1)CC2 (centres undefined),"inconclusive: 8.91 µM [inhibitor, partial curve, poor fit]"
3,COc1ccccc1NC(=O)C(=O)/C=C(\O)c1ccccc1,"inconclusive: 56.2 µM [inhibitor, partial curve, poor fit]"
4,CC1CCCC(C)N1CCCNC(=O)C(=O)Nc1ccc2nc3n(c(=O)c2c1)CCCCC3 (centres undefined),inactive
5,COc1cc(/C=N/Nc2nncc3ccccc23)cc(OC)c1OC,"inconclusive: 50.1 µM [inhibitor, partial curve, poor fit]"
6,Cn1c(=O)n(C)c2cc(/C=N/NC(=S)NCc3ccccc3)ccc21,"inconclusive: 50.1 µM [inhibitor, partial curve, poor fit]"
7,Cc1ccccc1NS(=O)(=O)c1cc(C(=O)NCCC2=CCCCC2)ccc1C,"inconclusive: 79.4 µM [inhibitor, partial curve, poor fit]"
8,O=[N+]([O-])c1cc(CN2CCOCC2)c2cccnc2c1O,active: 28.2 µM
9,O=C(c1cccc(Cl)c1Cl)N(Cc1ccco1)Cc1cccs1,"inconclusive: 20 µM [inhibitor, partial curve, poor fit]"
10,COc1ccccc1Nc1ccc2c(O)cc(S(=O)(=O)O)cc2c1,active: 22.4 µM
11,COC(=O)c1c(NC(=O)c2ccccc2)sc(C(N)=O)c1C,inactive
12,CCC(Cn1nnc2ccccc2c1=O)NC(=O)Nc1ccccc1Cl (centres undefined),inactive
13,COc1cc(NCCCCCCN)c2ncccc2c1OC,"inconclusive: 56.2 µM [inhibitor, partial curve, poor fit]"
14,CCOC(=O)/C(=C/c1c(C)n(C)c2ccc([N+](=O)[O-])cc12)C(C)=O,"inconclusive: 89.1 µM [inhibitor, partial curve, poor fit]"
15,COc1cc(COCC(O)CN2CCN(CCN3C(=O)c4cccc5cccc(c45)C3=O)CC2)cc(OC)c1OC (centres undefined),"inconclusive: 39.8 µM [inhibitor, full curve]"
16,COc1ccc(C)cc1NC(=O)c1cc(S(=O)(=O)N2CCCC2)cn1C,"inconclusive: 50.1 µM [inhibitor, partial curve, poor fit]"
17,COc1ccc(-c2nc3n(n2)C(c2ccccc2)C(C(=O)Nc2cccnc2)=C(C)N3)cc1 (centres undefined),"inconclusive: 89.1 µM [inhibitor, partial curve, poor fit]"
18,Nc1ccc(-c2cnc(N)c(C(=O)c3cccnc3)n2)cn1,"inconclusive: 35.5 µM [inhibitor, partial curve, poor fit]"
19,CCOC(=O)C1=C(C)N=c2s/c(=C/c3ccc(OCC(=O)O)cc3)c(=O)n2C1c1ccc(OC)cc1OC (centres undefined),"inconclusive: 25.1 µM [inhibitor, full curve]"
20,CN(C)C1(CNC(=O)C2CCN(S(=O)(=O)c3cccc(C(F)(F)F)c3)CC2)CCCCC1,inactive
21,CC(NC(=O)CSc1nc2sc3c(c2c(=O)n1-c1ccccc1)CCCC3)c1ccccc1 (centres undefined),inactive
22,Cc1cc(F)ccc1S(=O)(=O)Nc1cc2c(C(=O)O)c(C)oc2c2ccccc12,"inconclusive: 28.2 µM [inhibitor, partial curve, poor fit]"
